Experimental data reported in the supplement of paper PMC4604168 (melanoma cell lines).
The other results are listed elsewhere or left out. Repeats are few or missing, and single values can be far off.

Assays:
Test in all cases: cell count relative to DMSO control; melanoma cells; higher = more viable cells
Details in all cases: library dose: standard library concentration; 72 h
G361 = tested on: G361
IPC-298 = tested on: IPC-298
IST-MEL1 = tested on: IST-MEL1
LB2518-MEL = tested on: LB2518-MEL
LOXIMVI = tested on: LOXIMVI
MEL-HO = tested on: MEL-HO
MZ2-MEL = tested on: MZ2-MEL
MeWo = tested on: MeWo
RPMI7951 = tested on: RPMI7951
RVH-421 = tested on: RVH-421
SkMel28 = tested on: SkMel28
SkMel2 = tested on: SkMel2
SkMel30 = tested on: SkMel30
SkMel5 = tested on: SkMel5
UACC257 = tested on: UACC257
UACC62 = tested on: UACC62
WM115 = tested on: WM115
WM1716 = tested on: WM1716
WM1745 = tested on: WM1745
WM3526 = tested on: WM3526
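Also: cells treated in 1,536-well plates, then fixed and DAPI-stained, with nuclei counted from automated high-throughput microscope images.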

SMILES	cell count (G361) [%]	cell count (IPC-298) [%]	cell count (IST-MEL1) [%]	cell count (LB2518-MEL) [%]	cell count (LOXIMVI) [%]	cell count (MEL-HO) [%]	cell count (MZ2-MEL) [%]	cell count (MeWo) [%]	cell count (RPMI7951) [%]	cell count (RVH-421) [%]	cell count (SkMel28) [%]	cell count (SkMel2) [%]	cell count (SkMel30) [%]	cell count (SkMel5) [%]	cell count (UACC257) [%]	cell count (UACC62) [%]	cell count (WM115) [%]	cell count (WM1716) [%]	cell count (WM1745) [%]	cell count (WM3526) [%]
CC(C)(C)c1cnc(CSc2cnc(NC(=O)C3CCNCC3)s2)o1 + C/C(O)=C(\C#N)C(=O)Nc1cc(Br)ccc1Br [LFM-A13] (first compound 0.05 µM, partner dose 10 µM)	79.1	119	87.7	79.2	87.8	90.8	88.6	91.4	39	108	58.3	89	69.7	56.5	91	52.5	70.5	78	81.2	88.6
Cc1cc(SCc2sc(-c3ccc(C(F)(F)F)c(F)c3)nc2C)ccc1OCC(=O)O + Oc1cc(-c2nc(-c3ccccc3)[nH]c2-c2ccncc2)ccc1Cl [L779450] (first compound 10 µM, partner dose 1 µM)	69.9	86.1	96.3	91	104	89	87.3	84.9	103	53	38.8	38.7	83	70	91.4	43.6	55.2	72.6	58.9	45.8
O=C(/C=C/c1cccnc1)NCCCCC1CCN(C(=O)c2ccccc2)CC1 + N.N.[Cl][Pt][Cl] [cisplatin] (first compound 0.05 µM, partner dose 8 µM)	2.53	34.2	14.4	52.5	25.7	21.4	21.4	92	95.6	11.8	83.2	18.4	102	109	94.2	62.3	95.9	67	117	114
C[C@]1(O)C[C@@H](c2nc(-c3ccc4ccc(-c5ccccc5)nc4c3)c3c(N)nccn32)C1 + C[As](C)SC[C@H](NC(=O)CC[C@H](N)C(=O)O)C(=O)NCC(=O)O [Darinaparsin] (first compound 2 µM, partner dose 2 µM)	78.5	89.5	88.6	97.9	58.7	105	94.7	77.7	94.1	89.5	125	78.7	106	59	84.4	61.7	75	57.5	56.5	61.2
C=C(c1ccc(C(=O)O)cc1)c1cc2c(cc1C)C(C)(C)CCC2(C)C [Bexarotene] + C[As](C)SC[C@H](NC(=O)CC[C@H](N)C(=O)O)C(=O)NCC(=O)O [Darinaparsin] (first compound 10 µM, partner dose 2 µM)	86.4	82.7	92.8	95.2	166	98.1	82.8	85.8	68.3	67.5	76.9	87.5	96.4	107	76.4	81.2	113	66.1	96.8	68.4
Cn1c(=O)n(-c2ccc(C(C)(C)C#N)cc2)c2c3cc(-c4cnc5ccccc5c4)ccc3ncc21 + C[As](C)SC[C@H](NC(=O)CC[C@H](N)C(=O)O)C(=O)NCC(=O)O [Darinaparsin] (first compound 0.02 µM, partner dose 2 µM)	38	72.4	72.7	67.2	56.9	75.9	81.5	72.7	65.8	72.2	29.7	67.7	76.9	45.4	142	94.5	58.9	44.4	85.6	62.3
C/C(O)=C(\C#N)C(=O)Nc1cc(Br)ccc1Br + COc1cc(N2CCC(N3CCN(C)CC3)CC2)ccc1Nc1ncc(Cl)c(Nc2ccccc2S(=O)(=O)C(C)C)n1 [NVP-TAE684] (first compound 10 µM, partner dose 0.4 µM)	83.7	90.4	114	105	90.1	86.3	89.4	75.1	75.7	83.4	63.2	69.9	107	71	87.7	98.5	86.5	82.8	80.5	78.7
CCN(CC)CCCCNc1ncc2cc(-c3cc(OC)cc(OC)c3)c(NC(=O)NC(C)(C)C)nc2n1 + C/C(O)=C(\C#N)C(=O)Nc1cc(Br)ccc1Br [LFM-A13] (first compound 0.5 µM, partner dose 10 µM)	90.8	99.6	97.5	98.2	82.6	107	94.4	83.9	84.7	106	115	106	97.2	97.5	99.5	98.5	107	82.9	77	94
CCCCCCCCc1ccc(CCC(N)(CO)CO)cc1 [fingolimod] + C[As](C)SC[C@H](NC(=O)CC[C@H](N)C(=O)O)C(=O)NCC(=O)O [Darinaparsin] (first compound 10 µM, partner dose 2 µM)	0.447	21.5	3.94	0.21	11	1.01	0.661	8.12	0.53	1.05	0.214	0.35	9.41	28.6	46.4	19.5	10.2	36.4	9.77	47.9
CN(C)S(=O)(=O)c1ccc2c(c1)/C(=C/c1cc3c([nH]1)CCCC3)C(=O)N2 + C/C(O)=C(\C#N)C(=O)Nc1cc(Br)ccc1Br [LFM-A13] (first compound 2 µM, partner dose 10 µM)	71.6	71.1	89.9	65	120	82.7	96.7	80.9	64.4	108	69.8	71	85.2	58.1	86.8	84.3	62.5	104	50.9	68.9
COc1cc2c(Oc3ccc4[nH]c(C)cc4c3F)ncnc2cc1OCCCN1CCCC1 [cediranib] + Cc1cc(SCc2sc(-c3ccc(C(F)(F)F)c(F)c3)nc2C)ccc1OCC(=O)O [GW0742] (first compound 2 µM, partner dose 10 µM)	95.9	96	104	91.2	93.4	97.6	93.5	88.2	115	82	170	85.1	90.1	83.4	97.9	110	89.4	99.1	73	99.6
Cc1cc(Nc2cc(N3CCN(C)CC3)nc(/C=C/c3ccccc3)n2)n[nH]1 + C[As](C)SC[C@H](NC(=O)CC[C@H](N)C(=O)O)C(=O)NCC(=O)O [Darinaparsin] (first compound 0.2 µM, partner dose 2 µM)	67.9	75.2	91.5	63.6	70.6	76.1	83.9	62.1	62.6	67.6	59	68.5	72.2	41.1	82.9	74	45.9	60.8	85.4	49.3
O=S(=O)(c1ccccc1)N(CC(F)(F)F)c1ccc(C(O)(C(F)(F)F)C(F)(F)F)cc1 + O=C(Oc1ccc([N+](=O)[O-])cc1)N1CCC(C(O)(c2ccc3c(c2)OCO3)c2ccc3c(c2)OCO3)CC1 [JZL184] (first compound 7 µM, partner dose 5 µM)	99.3	95.8	115	145	82.5	108	92.6	77.1	77.7	99.3	105	113	101	83.5	80.1	78.2	80.7	121	80.5	81.8
N#Cc1c(O)c2c(-c3ccc(-c4ccccc4O)cc3)csc2[nH]c1=O + C/C(O)=C(\C#N)C(=O)Nc1cc(Br)ccc1Br [LFM-A13] (first compound 10 µM, partner dose 10 µM)	82.6	93.1	93.6	98	103	91.4	91.7	84.7	78.3	95.9	78.4	87.5	94.7	95.2	109	104	97.3	94.8	80.9	75.8
CC[C@]1(O)C[C@H]2CN(CCc3c([nH]c4ccccc34)[C@@](C(=O)OC)(c3cc4c(cc3OC)N(C=O)[C@H]3[C@@](O)(C(=O)OC)[C@H](OC(C)=O)[C@]5(CC)C=CCN6CC[C@]43[C@@H]65)C2)C1 [vincristine] + N.N.[Cl][Pt][Cl] [cisplatin] (first compound 0.0005 µM, partner dose 8 µM)	77.4	75.6	87.7	94.8	76.7	83.5	90.8	97.9	77.3	218	84	88.7	57.9	98.1	84.6	78.4	111	61.5	86.4	71.4
O=C(/C=C/c1cccnc1)NCCCCC1CCN(C(=O)c2ccccc2)CC1 + C[C@]12O[C@H](C[C@]1(O)CO)n1c3ccccc3c3c4c(c5c6ccccc6n2c5c31)CNC4=O [Lestaurtinib] (first compound 0.05 µM, partner dose 0.02 µM)	2.78	26.8	79	60.2	90.3	41.4	39	82.3	120	41.4	56.6	11.8	71	60.8	90.4	76.2	93.8	71.2	74.1	62.3
CCc1ccc(CCOc2ccc(CC3SC(=O)NC3=O)cc2)nc1 (stereo not given) [pioglitazone] + O=C(Oc1ccc([N+](=O)[O-])cc1)N1CCC(C(O)(c2ccc3c(c2)OCO3)c2ccc3c(c2)OCO3)CC1 [JZL184] (first compound 10 µM, partner dose 5 µM)	117	106	102	142	93	108	129	99.3	92.7	111	80.6	107	93.2	84.6	82.8	95.3	84.3	83.6	80.6	81.8
